Source: PMC7188849
These are yes or no findings as the source states them, for the method shown. For part of these data: Binding seen in cells or lysates may run through a third protein. Some binding calls cover weakened binding; strength is not graded here. For part of these data: Where a sequence is shown, tags or fusion partners need not be part of it.

Sequences of proteins named here, by UniProt entry; tags and fusion partners are left off.
UniProt P38936: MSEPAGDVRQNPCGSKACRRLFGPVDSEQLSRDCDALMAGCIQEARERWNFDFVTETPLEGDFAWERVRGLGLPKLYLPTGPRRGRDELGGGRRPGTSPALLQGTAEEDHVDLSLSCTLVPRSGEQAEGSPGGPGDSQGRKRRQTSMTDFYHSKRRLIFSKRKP
UniProt Q13547: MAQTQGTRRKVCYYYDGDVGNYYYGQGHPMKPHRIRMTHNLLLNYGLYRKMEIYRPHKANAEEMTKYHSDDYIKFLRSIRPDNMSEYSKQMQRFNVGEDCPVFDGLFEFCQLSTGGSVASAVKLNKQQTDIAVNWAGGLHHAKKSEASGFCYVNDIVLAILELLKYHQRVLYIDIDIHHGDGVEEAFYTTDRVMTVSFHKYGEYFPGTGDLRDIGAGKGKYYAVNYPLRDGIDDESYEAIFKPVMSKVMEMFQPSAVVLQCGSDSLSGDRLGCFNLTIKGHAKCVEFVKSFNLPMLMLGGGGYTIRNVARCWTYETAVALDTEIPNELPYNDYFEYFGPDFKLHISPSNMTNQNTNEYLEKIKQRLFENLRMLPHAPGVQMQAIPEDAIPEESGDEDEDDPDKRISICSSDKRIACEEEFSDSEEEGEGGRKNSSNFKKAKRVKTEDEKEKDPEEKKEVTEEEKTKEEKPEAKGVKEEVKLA
UniProt O15379: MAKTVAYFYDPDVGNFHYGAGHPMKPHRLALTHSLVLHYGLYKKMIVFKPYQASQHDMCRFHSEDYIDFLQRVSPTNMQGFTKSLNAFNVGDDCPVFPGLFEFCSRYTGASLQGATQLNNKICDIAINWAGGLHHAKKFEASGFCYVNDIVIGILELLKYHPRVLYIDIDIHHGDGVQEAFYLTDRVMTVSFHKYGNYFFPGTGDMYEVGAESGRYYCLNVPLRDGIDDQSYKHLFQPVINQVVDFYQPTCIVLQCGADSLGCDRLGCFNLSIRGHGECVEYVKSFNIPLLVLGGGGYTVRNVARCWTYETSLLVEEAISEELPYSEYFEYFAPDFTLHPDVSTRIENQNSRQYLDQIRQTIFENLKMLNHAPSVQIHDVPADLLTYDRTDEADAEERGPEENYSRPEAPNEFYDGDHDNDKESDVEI

Assays:
HA-tagged FHL2 (human) [1] = biological target: T1, HA-tagged FHL2 (human) (UniProt Q14192); assay: co-IP; competition: HA-IP of HA-FHL2 from transfected 293 T cells expressing FLAG-HDAC3 plus increasing FLAG-p57 plasmid (1/1, 2/1, 3/1 to HDAC3), or FLAG-HDAC1 with a threefold excess of p57 plasmid; blots probed with FLAG and HA antibodies
T1 sequence: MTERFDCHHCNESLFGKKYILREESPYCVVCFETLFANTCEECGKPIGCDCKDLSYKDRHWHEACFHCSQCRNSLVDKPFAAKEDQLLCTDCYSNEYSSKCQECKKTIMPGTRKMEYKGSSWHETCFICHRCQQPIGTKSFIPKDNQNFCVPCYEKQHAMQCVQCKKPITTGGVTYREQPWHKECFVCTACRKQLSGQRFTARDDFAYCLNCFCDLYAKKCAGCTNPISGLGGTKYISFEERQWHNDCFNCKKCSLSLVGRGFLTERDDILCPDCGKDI

HA-tagged FHL2 (human) [2] = biological target: T1, HA-tagged FHL2 (human); assay: co-IP; HA-IP of HA-FHL2 from 293 cells cotransfected with FLAG-HDAC1; coprecipitated FLAG-HDAC1 detected with anti-FLAG
[3] = biological target: T2, p57Kip2 fused to the DNA binding domain of Gal4 (pAS2-1-p57) (human) (UniProt P49918); assay: two-hybrid; library screen: bait Gal4 DBD-p57 stably integrated in S. cerevisiae PJ69-4A, prey Human HeLa … cDNA library in pACT2; clones verified by retransformation and sequenced
T2 sequence: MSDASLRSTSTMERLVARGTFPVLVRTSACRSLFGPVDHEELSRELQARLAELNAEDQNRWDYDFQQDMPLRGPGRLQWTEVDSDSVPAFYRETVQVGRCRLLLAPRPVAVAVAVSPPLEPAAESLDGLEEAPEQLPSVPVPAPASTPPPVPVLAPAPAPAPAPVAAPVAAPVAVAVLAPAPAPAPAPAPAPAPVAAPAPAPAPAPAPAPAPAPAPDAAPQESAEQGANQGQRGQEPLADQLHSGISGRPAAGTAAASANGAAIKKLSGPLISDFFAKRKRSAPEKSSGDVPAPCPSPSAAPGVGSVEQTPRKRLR

[4] = biological target: p21Cip1/Waf1 fused to the DNA binding domain of Gal4 (pAS2-1-p21) (human) (UniProt P38936); assay: two-hybrid; directed test: pACT2-FHL2 together with pAS2-1 bait plasmids in PJ69-4A; growth on -Trp/-Leu/-Ade plates
[5] = biological target: T2, p57Kip2 fused to the DNA binding domain of Gal4 (pAS2-1-p57) (human); assay: as above
[6] = biological target: T3, FLAG-tagged full-length FHL2 (human) (UniProt Q14192); assay: co-IP; FLAG-IP of FLAG-FHL2 (mouse anti-FLAG) from lysates of transfected 293 T cells; coprecipitated HA-p57 proteins detected with anti-HA
T3 sequence: T1 sequence

HA-tagged FHL2 (human) [7] = biological target: T1, HA-tagged FHL2 (human); assay: co-IP; competition: HA-IP of HA-FHL2 from transfected 293 T cells expressing FLAG-HDAC3 plus increasing FLAG-p57 plasmid (1/1, 2/1, 3/1 to HDAC3), or FLAG-HDAC1 with a threefold excess of p57 plasmid; blots probed with FLAG and HA antibodies; remark: listed apart in the source
[8] = biological target: T4, endogenous p57Kip2 (human (endogenous in HeLa and HRT-18)) (UniProt P49918); assay: co-IP; IP of endogenous p57 with rabbit polyclonal p57 antibody from HeLa and HRT-18 cellular extracts, over night at 4 °C, IP-buffer (50 mM Tris pH 7.5, 150 mM NaCl, 0.5% NP-40); FHL2 detected by Western blot
T4 sequence: T2 sequence

[9] = biological target: T4, endogenous p57Kip2 (human (endogenous in HeLa and HRT-18)); assay: co-IP; IP of endogenous p57 (rabbit polyclonal; rabbit IgG control IP) from the nuclear fraction of HRT-18 cells after digitonin fractionation; FHL2 detected by immunoblot
[10] = biological target: T5, HA-tagged p57 wildtype (human) (UniProt P49918); assay: co-IP; HA-IP of HA-p57 from lysates of transfected 293 T cells, 4 hours at 4 °C, IP-buffer; bound FLAG-FHL2 proteins detected with anti-FLAG, endogenous CDKs with anti-PSTAIR
T5 sequence: T2 sequence

For “FLAG-tagged histone deacetylase 1 (HDAC1) (from UniProt Q13547 1-482) (enzyme)”, the binding (HA-tagged FHL2 (human) [1]) was “binds” and the binding (HA-tagged FHL2 (human) [2]) was “binds”.

“FLAG-tagged HDAC3 (from UniProt O15379 1-428) (enzyme)” was tested, and the binding (HA-tagged FHL2 (human) [1]) was “binds”.

B1: four-and-a-half LIM-only protein 2 (FHL2) fused to the Gal4 transactivation domain (pACT2-FHL2) (protein, UniProt Q14192 1-279)
chain: T1 sequence
For B1, the binding [3] was “binds”, the binding [4] was “binds weakly” and the binding [5] was “binds”.

B2: HA-p57 amino terminal truncation mutant (p57-Nt) (domain or fragment, UniProt P49918 1-125)
chain: MSDASLRSTSTMERLVARGTFPVLVRTSACRSLFGPVDHEELSRELQARLAELNAEDQNRWDYDFQQDMPLRGPGRLQWTEVDSDSVPAFYRETVQVGRCRLLLAPRPVAVAVAVSPPLEPAAES
With B2 the binding [6] was “binds”.

B3: FLAG-tagged p57 (protein, UniProt P49918 1-316)
chain: T2 sequence
For B3, the binding (HA-tagged FHL2 (human) [7]) was “binds”.

B4: endogenous FHL2 (protein, UniProt Q14192 1-279)
chain: T1 sequence
For B4, the binding [8] was “binds” and the binding [9] was “binds”.

B5: FLAG-tagged full-length FHL2 (protein, UniProt Q14192 1-279)
chain: T1 sequence
For B5, the binding [10] was “binds”.

B6: HA-p57 carboxyterminal truncation mutant (p57-Ct) (domain or fragment, UniProt P49918 125-316)
chain: SLDGLEEAPEQLPSVPVPAPASTPPPVPVLAPAPAPAPAPVAAPVAAPVAVAVLAPAPAPAPAPAPAPAPVAAPAPAPAPAPAPAPAPAPAPDAAPQESAEQGANQGQRGQEPLADQLHSGISGRPAAGTAAASANGAAIKKLSGPLISDFFAKRKRSAPEKSSGDVPAPCPSPSAAPGVGSVEQTPRKRLR
In the case of B6, the binding [6] is reported as “no binding”.
